Test results as given in PubChem BioAssay AID2147 (National Center for Advancing Translational Sciences (NCATS), 2009).
Among all 230,000 compounds or so, about 3,600 (1.6%) were called active. Inconclusive results, whose numbers are uncertain, are shown with a selection of clear calls. Calls come from the whole dose curve; as a rule, active = well fitted inhibition curve with a large enough effect (not every such curve was filed as active); inconclusive = small, poorly fitted or top-dose-only effect, or another doubt; inactive = no such curve, though single readings can be large or run the other way. A potency beside an inconclusive call is a rough fit, not a confirmed value.

target: Lysine-specific demethylase 4E (Homo sapiens) (UniProt B2RXH2); test: qHTS Assay for Inhibitors of Human Jumonji Domain Containing 2E (JMJD2E); settings: JMJD2E catalytic domain, FDH-coupled NADH fluorescence (FDH is formaldehyde dehydrogenase); series mostly up to 57.1 µM; activity change, negative = inhibition: at the top concentration
Note: nearly all actives have a fitted effect of over 50% in size.
Potency is the fitted concentration of half-maximal effect; tags give direction and shape of the fitted curve.
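Throughout, for activity change, negative = inhibition: 0% = wells with enzyme and -100% = buffer wells without enzyme.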

Chain of UniProt B2RXH2 (B2RXH2 whole entry, looked up, the tested form may be a part): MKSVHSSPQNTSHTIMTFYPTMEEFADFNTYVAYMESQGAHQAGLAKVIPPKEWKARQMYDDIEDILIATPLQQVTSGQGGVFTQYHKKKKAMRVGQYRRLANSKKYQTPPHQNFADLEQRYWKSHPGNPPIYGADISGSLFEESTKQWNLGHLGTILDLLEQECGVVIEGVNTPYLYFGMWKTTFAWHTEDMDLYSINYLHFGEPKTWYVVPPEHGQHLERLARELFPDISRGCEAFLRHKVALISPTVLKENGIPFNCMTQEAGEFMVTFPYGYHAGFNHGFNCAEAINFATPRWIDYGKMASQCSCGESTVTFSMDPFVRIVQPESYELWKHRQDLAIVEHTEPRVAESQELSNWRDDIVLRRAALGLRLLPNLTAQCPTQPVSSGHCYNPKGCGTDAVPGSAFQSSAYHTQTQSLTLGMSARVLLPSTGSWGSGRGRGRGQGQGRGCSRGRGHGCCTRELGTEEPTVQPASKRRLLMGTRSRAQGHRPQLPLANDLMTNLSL

Compound | activity change, negative = inhibition | Potency
O=C(Nc1ccccc1N1CCOCC1)c1ccc(N2CCOCC2)c([N+](=O)[O-])c1 | inactive: 0.107% | –
CCC1=C2CC[C@H]3C(=O)N(CC(=O)OC)C(=O)[C@H]3[C@H]2[C@@]2(C)C(=O)N(CC3CC3)C(=O)N2C1=O | inactive: -18.6% | –
CC(C)NS(=O)(=O)c1ccc(CCC(=O)Nc2ccc3c(c2)OCO3)cc1 | inactive: -2.75% | –
COCCNC(=O)c1snc2ccc(Cl)cc12 | – | inconclusive: 35.5 µM [inhibitor, partial curve]
CCCOc1ccc(N2C(=O)CC(SCCN)C2=O)cc1 (stereo not drawn) | inactive: -4.18% | –
O=C(CN1C(=O)C2CC=CCC2C1=O)NCc1cccs1 (stereo not drawn) | inactive: -6.99% | –
COc1ccc(-c2nc(NC(=O)c3cc(C(C)(C)C)nn3C)sc2C)cc1 | – | inconclusive: 28.2 µM [inhibitor, partial curve]
Cc1cc(=O)c2ccc3ccccc3c2[nH]1 | – | inconclusive: 25.1 µM [inhibitor, single point]
CN1Cc2c(N3CCOCC3)nc3sc(C(=O)c4ccccc4)c(N)c3c2CC1(C)C | – | inconclusive: 39.8 µM [inhibitor, single point]
OCCN(Cc1ccccc1)Cc1ccc(Cl)cc1 | – | inconclusive: 39.8 µM [inhibitor, single point]
Cc1ccc(N2C(=O)CC(NCC3CCCO3)C2=O)cc1 (stereo not drawn) | inactive: -10.8% | –
COc1ccc(/C=C/C(=O)Nc2cc(S(=O)(=O)N3CCCCC3)ccc2N2CCCCC2)cc1OC | – | inconclusive: 4.47 µM [inhibitor, single point]
C=CCN(CC=C)c1nc2ccccc2nc1C(C#N)C(=O)OC(C)C (stereo not drawn) | – | inconclusive: 31.6 µM [inhibitor, partial curve]
CCOC(=O)c1c(NC(=O)c2nc3n(n2)C(C(F)F)CC(C)N3)sc2c1CCCC2 (stereo not drawn) | – | inconclusive: 4.47 µM [inhibitor, full curve]
COc1cccc(NC(=O)c2nnn(Cc3ccc(Br)cc3F)c2N)c1 | – | inconclusive: 35.5 µM [inhibitor, single point]
Cc1ccc2c(c1)c1ncnc(N3CCC4(CC3)OCCO4)c1n2C | – | inconclusive: 28.2 µM [inhibitor, partial curve]
CCN(CC)CCCNC(=O)CCC(=O)Nc1ccc2nc(N3CCCCC3)cc(C)c2c1 | – | inconclusive: 31.6 µM [inhibitor, partial curve]
COC(=O)C(C)N1C(=O)S/C(=C\c2cc(C)n(-c3ccccn3)c2C)C1=O (stereo not drawn) | inactive: -4.08% | –
COc1ccc(C(=O)NCCc2cc3c(OC)ccc(OC)c3[nH]c2=O)cc1OC | – | inconclusive: 11.2 µM [inhibitor, partial curve]
CCC(Sc1nc2sc(C(=O)OC)c(C)c2c(=O)n1N)C(=O)N(CC)CC (stereo not drawn) | – | inconclusive: 39.8 µM [inhibitor, single point]
CCC(c1nnnn1Cc1ccc(OC)cc1)N(CCCO)Cc1cc2cc3c(cc2[nH]c1=O)OCO3 (stereo not drawn) | – | inconclusive: 35.5 µM [inhibitor, single point]
COc1cc(N/C=C2\CC(=O)NC(C)=C2C#N)cc(OC)c1OC | – | inconclusive: 3.16 µM [inhibitor, full curve, poor fit]
O=C(Nc1ccc(Cl)cc1)Nc1nnc(SCc2ccc(Cl)cc2)s1 | inactive: 5.36% | –
O=C(Nc1nc2ccccc2s1)c1cc(-c2ccco2)nc2ccccc12 | – | inconclusive: 28.2 µM [inhibitor, partial curve]
CC(C)N1CCN(Cc2cccn2-c2ccccn2)CC1CCO (stereo not drawn) | inactive: -3.77% | –

Compound | activity change, negative = inhibition | Potency
Cc1ccc(NC(=O)C2CC(=O)Nc3ncnn32)c(C)c1 (stereo not drawn) | inactive: 3.71% | –
O=C(CCN1CCOCC1)N/N=C/c1cc(Br)cc(Br)c1O | – | active: 28.2 µM
Cc1cccc(C)c1NC(=O)CSc1nnc(-c2ccco2)c(-c2ccco2)n1 | – | inconclusive: 25.1 µM [inhibitor, single point]
COc1ccc(NC(=O)COC(=O)Cc2c(F)cccc2Cl)cc1OC | inactive: 5.9% | –
O=S(=O)(N/N=C/c1cccnc1)c1ccc(Cl)c(Cl)c1 | inactive: 6.71% | –
Cc1cc(-c2ccccc2)nc2oc(C(=O)NN)c(N)c12 | – | inconclusive: 31.6 µM [inhibitor, partial curve]
Cc1cccc(NC(=S)Nc2cccc(C)n2)n1 | inactive: -1.89% | –
CCS(=O)(=O)NCCc1csc(-c2cccnc2)n1 | – | inconclusive: 39.8 µM [inhibitor, single point]
COc1ccc(CCNC(=S)NC(=O)c2ccccc2)cc1C | inactive: -0.693% | –
CCCCc1ccc(NC(=S)NCc2cccc(OC)c2)cc1 | inactive: -9.18% | –
CC(CCc1ccccc1)NC(=O)c1ccco1 (stereo not drawn) | inactive: 0.31% | –
Cc1ccc(NCC(=O)N/N=C/c2cc(O)ccc2[N+](=O)[O-])cc1 | inactive: -4.15% | –
O=C(CCc1nnc(CCCCc2ccccc2)o1)N1CCN(CCO)CC1 | – | inconclusive: 39.8 µM [inhibitor, single point]
N#CCSc1nc2ccc(N3CCCCC3)cc2c(=O)n1Cc1ccccc1 | – | inconclusive: 28.2 µM [inhibitor, partial curve]
CN1C(N)=NC(=O)/C1=C/c1ccc(OC(F)(F)F)cc1 | – | inconclusive: 39.8 µM [inhibitor, single point]
CCn1c(=O)c(C(=O)NCCN2CCCCC2)c(O)c2ccccc21 | – | inconclusive: 39.8 µM [inhibitor, single point]
CC(NC(=O)CSc1ccccc1C(=O)O)C1CC2CCC1C2 (stereo not drawn) | inactive: -3.46% | –
Cc1cc2oc(=O)cc(Cn3nnc(-c4ccc(Cl)cc4)n3)c2cc1C(C)C | – | inconclusive: 25.1 µM [inhibitor, partial curve]
c1ccc(-c2ccc(-c3ccccn3)nn2)nc1 | – | inconclusive: 35.5 µM [inhibitor, single point]
O=C(O)CSc1ncnc2sc(-c3ccccc3)cc12 | – | inconclusive: 31.6 µM [inhibitor, partial curve]
CCC(=O)Oc1ccc(C(=O)Nc2ccc3c(c2)C(=O)N(C2CCCCC2)C3=O)cc1 | – | inconclusive: 12.6 µM [inhibitor, partial curve]
COc1ccc(NC(=O)C2CCCC2)cn1 | inactive: -1.38% | –
c1ccc(C2=Nn3c(nnc3-c3cccs3)SC2)cc1 | inactive: 11.9% | –
COc1ccccc1N1CCN(C/C(O)=C(\C#N)c2nc(-c3ccccc3)cs2)CC1 | – | inconclusive: 39.8 µM [inhibitor, single point]
COc1ccc(OC)c(/C=C/C(=O)Nc2ccc3c(c2)CCC3)c1 | – | inconclusive: 35.5 µM [inhibitor, single point]

Compound | activity change, negative = inhibition | Potency
CN1C(=O)c2ccccc2NC(=O)[C@]12O[C@@H]2c1cccc(O)c1 | – | inconclusive: 39.8 µM [inhibitor, single point]
COc1cc(CN2CCNC(=O)C2CC(=O)N2CCCCO2)cc(OC)c1 (stereo not drawn) | inactive: -3.11% | –
C/C(=N\NC(N)=O)c1cccc(Cl)c1 | inactive: -1.06% | –
C(=C\c1ccco1)/c1ccc2ccccc2n1 | – | inconclusive: 20 µM [inhibitor, partial curve]
O=C(COc1ncnc2ccc(Br)cc12)Nc1ccc(N2CCOCC2)cc1 | inactive: -0.814% | –
CCOC(=O)Cc1c(C)nc2c(-c3ccc(Cl)cc3)c(C)[nH]n2c1=O | – | inconclusive: 35.5 µM [inhibitor, single point]
COc1cc2[nH]c(=O)n(CCCCCC(=O)N3CC=C(c4ccccc4)CC3)c(=O)c2cc1OC | – | inconclusive: 28.2 µM [inhibitor, partial curve]
CCCS(=O)(=O)NCCc1cc2cc(C)c(C)cc2[nH]c1=O | – | inconclusive: 28.2 µM [inhibitor, single point]
CCOC(=O)CNC(=O)c1sc(NC(=O)c2cccc(F)c2)nc1C | – | inconclusive: 28.2 µM [inhibitor, partial curve]
O=C(Nc1ccccc1Cl)c1cc(S(=O)(=O)N2CCCCC2)ccc1N1CCOCC1 | – | inconclusive: 39.8 µM [inhibitor, single point]
O=[N+]([O-])c1cccc(-c2ccc(C(=S)N3CCN(c4ccccc4)CC3)o2)c1 | inactive: -5.18% | –
COc1cc(OC)c(S(=O)(=O)Nc2ccccc2N2CCCCC2)cc1NC(C)=O | inactive: 5.79% | –
CC(OC(=O)c1cccnc1SCc1cc(=O)n2ccccc2n1)c1ccccn1 (stereo not drawn) | – | inconclusive: 31.6 µM [inhibitor, single point]
CCOC(=O)c1[nH]c2ccc(OC)cc2c1NC(=O)CCN1CCc2ccccc2C1 | – | inconclusive: 25.1 µM [inhibitor, partial curve]
Cc1ccccc1C(=O)OC(C)CN1CCOCC1 (stereo not drawn) | – | inconclusive: 35.5 µM [inhibitor, single point]
N#Cc1c[nH]n2c(=O)cc(Cc3ccccc3)nc12 | – | inconclusive: 25.1 µM [inhibitor, single point]
COc1cc(/C=C2\C(=O)ON=C2c2ccccc2)cc(Cl)c1O | – | inconclusive: 39.8 µM [inhibitor, single point]
Cc1ccc(S(=O)(=O)N/N=C/c2cccc3nccnc23)cc1 | – | inconclusive: 39.8 µM [inhibitor, single point]
O=C(O)c1ccc(-c2nc(-c3ccc(Cl)cc3)cs2)cc1 | – | inconclusive: 31.6 µM [inhibitor, partial curve]
Cc1ccc(Oc2nc3ccccn3c(=O)c2/C=C(\C#N)C(=O)Nc2c(C)n(C)n(-c3ccccc3)c2=O)c(C)c1 | – | inconclusive: 22.4 µM [inhibitor, partial curve]
O=C1CC(Cc2ccccc2)C(=O)N1CCc1ccc2c(c1)OCO2 (stereo not drawn) | inactive: -0.316% | –
C=CCN(CC=C)CCOc1cc(C)ccc1[N+](=O)[O-] | – | inconclusive: 39.8 µM [inhibitor, single point]
CCOP(=O)(OCC)C(NC(=O)Nc1cccc(Cl)c1)C(N)=O (stereo not drawn) | inactive: 0.325% | –
